This passage reports ALDHbr results from the supplement of paper PMC11880418.

Molecules are shown by their SMILES. Where a name gives a salt, the structure may show the parent alone. The list shows a part of the results. The data scatter; read single values as rough. Residues, ends and D or L forms follow the SMILES beside them.

Test systems include MKN45; PANC1; SUM159; T84.
Holding throughout (assay): ALDHbr (CSC) cell proportion score relative to DMSO vehicle (ratio to DMSO); breast (SUM159) / gastric (MKN45) / pancreatic (PANC1) / colon cancer lines; ALDHbr cells have high ALDH activity and are rich in cancer stem cells (CSC); higher = more CSC (ALDHbr) cells remaining
What all share (conditions): 10 µM; 72 h
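Also: High-content imaging of ALDEFLUOR-stained cells with Hoechst-labelled nuclei in 384-well plates, triplicate wells, scored as Z-score against 0.1% DMSO vehicle, negative meaning fewer ALDHbr cells.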

Consider `N=C(N)NC(=O)c1nc(Cl)c(N)nc1N` [Amiloride hydrochloride dihydrate], for which the ALDHbr in the experiment with MKN45 is 1.09; in the experiment with PANC1, 0.793; in the experiment on SUM159, 1.02; in the experiment with T84, 0.925.
For `COc1cc(N)c(Cl)cc1C(=O)NC1CCN(CCCOc2ccc(F)cc2)CC1OC` (centres undefined) [Cisapride], in that order: 0.949, 0.779, 1.08 and 0.89.
Consider `CC(=O)Nc1ccc(CC(=O)O)cc1` [Actarit], for which the ALDHbr came out at 1.25 with MKN45, 0.943 with PANC1, 0.794 in the experiment with SUM159 and 0.967 in the experiment with T84.
For the compound `C/C(=C\C(=O)OCCCCCCCCC(=O)O)C[C@@H]1OC[C@H](C[C@@H]2O[C@H]2[C@@H](C)[C@H](C)O)[C@@H](O)[C@H]1O` [Mupirocin], the ALDHbr with MKN45 was 1.04; in the experiment with PANC1, 0.54; in the experiment on SUM159, 1.1; with T84, 0.818.
As to `CCCOc1ccc(C(=O)OCCN(CC)CC)cc1N` [Proparacaine hydrochloride], the ALDHbr in the experiment on MKN45 was found to be 0.753; with PANC1, 0.74; in the experiment on SUM159 it was 1.01; in the experiment on T84, 0.837.
In the case of `CCCC1C(=O)N2C(N(C)C)=Nc3ccc(C)cc3N2C1=O` (centres undefined) [Azapropazone], the ALDHbr is 0.706 in the experiment on MKN45, 0.811 in the experiment with PANC1, 1.31 in the experiment on SUM159 and 0.76 in the experiment on T84.
For `c1ccc2[nH]c(-c3cscn3)nc2c1` [Tiabendazole], in that order: 1.22, 1.1, 1.54 and 0.96.
For `Clc1ccc(C(c2ccccc2Cl)C(Cl)Cl)cc1` (centres undefined) [Mitotane], in that order: 0.844, 1.1, 0.694 and 1.01.
Take `Cc1ncc(C[n+]2csc(CCO)c2C)c(N)n1` [Thiamine hydrochloride]: the ALDHbr was 1.02 in the experiment on MKN45, 1.03 in the experiment with PANC1, 1.01 in the experiment with SUM159 and 0.942 in the experiment with T84.
For `CC(=O)OC(C)C[N+](C)(C)C` (centres undefined) [Methacholine chloride], in that order: 1.05, 0.95, 1.02 and 0.962.
For `N=C(N)NC(=O)Cc1c(Cl)cccc1Cl` [Guanfacine hydrochloride], in that order: 0.807, 0.981, 1.26 and 1.14.
As for `CC(C)CCCCC(=O)N[C@@H](CCN)C(=O)N[C@@H](CN[C@@H](CCN)C(=O)N[C@H]1CCNC(=O)[C@H]([C@@H](C)O)NC(=O)[C@H](CCN)NC(=O)[C@H](CCN)NC(=O)[C@H](CC(C)C)NC(=O)[C@@H](CC(C)C)NC(=O)[C@H](CCN)NC1=O)[C@@H](C)O.CCC(C)CCCCC(=O)N[C@@H](CCN)C(=O)N[C@@H](CN[C@@H](CCN)C(=O)N[C@H]1CCNC(=O)[C@H]([C@@H](C)O)NC(=O)[C@H](CCN)NC(=O)[C@H](CCN)NC(=O)[C@H](CC(C)C)NC(=O)[C@@H](CC(C)C)NC(=O)[C@H](CCN)NC1=O)[C@@H](C)O` (stereo partly drawn) [Colistin sulfate] (HELM PEPTIDE1{[C[C@@H](O)[C@H](CN[C@@H](CCN)C(=O)[*:2])N[*:3]].[Dab].[Dab].[dL].L.[Dab].[Dab].T}|PEPTIDE2{[CCC(C)CCCCC(=O)[*:2]].[Dab]}$PEPTIDE1,PEPTIDE2,1:R3-2:R2|PEPTIDE1,PEPTIDE1,2:R3-8:R2$$$V2.0), the ALDHbr in the experiment with MKN45 is 0.849; with PANC1, 0.939; in the experiment with SUM159, 1.02; in the experiment on T84, 0.852.
For `Cc1c(O)cccc1C(=O)N[C@@H](CSc1ccccc1)[C@H](O)CN1C[C@H]2CCCC[C@H]2C[C@H]1C(=O)NC(C)(C)C` [Nelfinavir mesylate], in that order: 0.695, 1.34, 0.61 and 0.424.
The corresponding values for `NNC(=O)c1ccncc1` [Isoniazid] are 0.965, 0.753, 1.13 and 0.927.
The corresponding values for `CCCCNc1ccc(C(=O)OCCOCCOCCOCCOCCOCCOCCOCCOCCOC)cc1` [Benzonatate] are 0.717, 0.751, 0.902 and 0.897.
Turning to `Cc1ccnc(NS(=O)(=O)c2ccc(N)cc2)n1` [Sulfamerazine], the ALDHbr was found to be 1.02 in the experiment on MKN45, 0.917 with PANC1, 1.02 in the experiment on SUM159 and 0.872 with T84.
In the case of `O=C1OC(CN2CCOCC2)CN1/N=C/c1ccc([N+](=O)[O-])o1` (centres undefined) [Furaltadone hydrochloride], the ALDHbr in the experiment with MKN45 is 0.281; with PANC1 it was 0.589; in the experiment on SUM159, 0.0986; in the experiment on T84, 0.349.
As to `CC1CCc2c(N3CCC(O)CC3)c(F)cc3c(=O)c(C(=O)O)cn1c23` (centres undefined) [Nadifloxacin], the ALDHbr was found to be 1.01 with MKN45, 0.811 with PANC1, 0.966 in the experiment on SUM159 and 0.952 in the experiment with T84.
Take `CNC(=C[N+](=O)[O-])NCCSCc1ccc(CN(C)C)o1` [Ranitidine hydrochloride]: the ALDHbr in the experiment on MKN45 was found to be 1.16; with PANC1, 0.892; with SUM159, 1.03; with T84, 0.822.
Regarding `CC(=O)OCC(=O)[C@@]1(OC(C)=O)[C@@H](C)C[C@H]2[C@@H]3C[C@H](F)C4=CC(=O)C=C[C@]4(C)[C@@]3(F)[C@@H](O)C[C@@]21C` [Diflorasone Diacetate], the ALDHbr with MKN45 amounted to 1.24; with PANC1 it was 0.657; in the experiment with SUM159, 0.731; in the experiment with T84 it was 0.814.
`O=C1C(CC[S+]([O-])c2ccccc2)C(=O)N(c2ccccc2)N1c1ccccc1` (centres undefined) [Sulfinpyrazone]: the ALDHbr with MKN45 is 0.964; in the experiment on PANC1, 0.947; in the experiment with SUM159 it was 1.12; with T84 it was 1.1.
The corresponding values for `O=C(OCC(O)CO)c1ccccc1Nc1ccnc2cc(Cl)ccc12` (centres undefined) [Glafenine hydrochloride] are 1.18, 0.754, 1.41 and 0.793.
Regarding `CCOC(=O)c1ccc(N)cc1` [Benzocaine], the ALDHbr with MKN45 came to 1.24; in the experiment on PANC1, 1.14; with SUM159, 1.04; with T84, 0.952.
For `CN(CCOc1ccc(NS(C)(=O)=O)cc1)CCc1ccc(NS(C)(=O)=O)cc1` [Dofetilide], in that order: 1.02, 0.927, 0.867 and 1.1.
For `CCCCOC(=O)c1ccc(O)cc1` [Butylparaben], the ALDHbr in the experiment on MKN45 turned out to be 0.801; in the experiment on PANC1, 0.91; in the experiment on SUM159, 1; in the experiment with T84, 0.96.
Take `CCN(CC)CCOC(=O)C1(c2ccc([N+](=O)[O-])cc2)CCCC1` [Nitrocaramiphen hydrochloride]: the ALDHbr amounted to 1.04 in the experiment with MKN45, 0.932 in the experiment with PANC1, 0.597 in the experiment with SUM159 and 1.01 in the experiment with T84.
